Measurements published in the supplement of paper PMC3334620.
Whole data set: some 33,000 sequences, median “E-score (-0.5 to 0.5)” near -0.056, cut for the highest 2% near 0.38. This is one part of the list.

molecular target: Stb4 (UniProt P50104); assay: PBM E-score (8-mer binding enrichment) (E-score (-0.5 to 0.5)); higher = stronger / more preferred TF binding; most listed sequences are background and not binding sites; conditions: protein concentration: 200 nM; construct: GST-DNA-binding domain
How it was run: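 GST-tagged yeast TFs (full-length or DNA-binding domain) were made by PURExpress in vitro transcription/translation and applied at about 100-200 nM to universal all-10-mer Agilent arrays. The arrays were made double-stranded by primer extension, on fresh or once-stripped slides. Bound protein was detected with fluorescent anti-GST, and scans were normalised with masliner. Each ungapped eight-base word, pooled with its reverse complement, received an E-score (modified Wilcoxon-Mann-Whitney statistic) from the Universal PBM Analysis Suite.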

Sequence	PBM E-score
GTGGACAC	-0.228
CATATTTC	0.0406
CCGATTGC	0.275
CAACAATG	-0.138
CGTTCCCA	-0.102
ATAGTCCA	-0.103
AGCATCAG	-0.171
CTGAGTTC	-0.0388
GGGGTGAC	-0.0263
CTCACTCC	0.12
GCACGCGA	0.0721
CTAAGTCC	-0.18
CCGCAAAC	0.135
TACCCAAA	-0.0863
TCCATAGA	-0.0576
GTACACTA	-0.208
CCTGCCGA	0.359
CTATGGCC	-0.223
CCCGAGGC	0.388
ATGCCAAG	-0.177
ACGGGTTA	-0.041
CCAACTCG	0.0513
CCCTGGAA	-0.118
AGCACGGA	0.209
CGTTGTCC	0.0365

Sequence	PBM E-score
ACACACCC	0.254
ACGTATCC	0.0505
TGGATAAA	0.027
CCCGGGAC	0.387
CTTGTGTC	-0.159
TCACAAAA	0.115
CACATGGC	0.00518
GATTAAAA	0.0553
AGAAGACC	-0.103
AGGTTCAT	-0.128
CGTAACTC	-0.0106
CCGCGTGC	0.119
CATACCAC	0.0105
AGTCGCGA	-0.0992
TAGTGTGA	-0.167
AGCTATCC	0.189
CTACACGC	-0.183
CTGTACTA	-0.0226
ACAAATGG	-0.293
AAGTTACA	-0.223
ACTTACTA	-0.187
ATACCCCA	0.0396
CTTTCTAA	0.00201
AAATCCCT	-0.178
CAAGATCA	-0.183

Sequence	PBM E-score
ACCCCACC	0.289
AGGATCAA	0.0557
ATAATCTG	-0.159
CGACTCAG	0.0507
GTCGTTGA	-0.145
CCATTAGG	-0.324
GGCGGCCC	-0.0498
AACATTCA	-0.00804
CGAACGAG	0.0473
CGAGAGAG	0.116
AATACGAC	-0.114
AATCTGGA	-0.059
AGCGGCTC	0.207
CCGGATAC	0.409
AATACATC	0.111
GGCCATAA	-0.083
CGGACCGA	0.419
CCTTAAAC	-0.0937
CACCGCGG	0.207
ACCTCACA	-0.0391
ACCTCGAG	-0.0838
CATTATTA	0.0199
GCAAGGTA	-0.143
GGATACAA	0.2
CCTATGAA	-0.165

Sequence	PBM E-score
CAGCCCCA	-0.286
GAGTCTCA	-0.0337
AGACATTA	0.00299
TGGGGACA	-0.326
CAAAGGCG	-0.177
ATTGTGAA	-0.11
ATTTGTGC	-0.117
CCACCTGG	-0.328
CGTGGTAA	-0.189
ATGTTTCG	0.2
CCCTTGAA	0.0809
ATCCACCG	0.0768
ACCGCTAT	-0.039
TAAGGAGA	-0.177
AACCCCTA	-0.303
GCCAGCGC	-0.101
ACAATTAC	-0.12
TCTAAGAA	0.0163
ACTCGTAG	-0.202
AGACCGCG	-0.0609
AGAGATAG	-0.0326
GCCGGGCA	0.174
ATACTTGA	-0.326
AAGGTACG	-0.0106
ACTTTGGG	-0.0552

Sequence	PBM E-score
GTGAATGA	-0.0497
CAGACTGC	-0.294
AGAGCCTG	-0.237
GCAATGCA	-0.0224
ACTGGTTG	0.0369
GAAAATGC	-0.127
AGTCAGAC	-0.208
ATCAACGG	0.0758
CCTATCAG	-0.123
CAGATACC	0.0284
AGCCGATC	0.313
AATGAATG	-0.0478
CCTCGGTC	0.215
CTTAGAAC	-0.0637
CATTAGAG	-0.22
AGACTCAA	-0.0784
CTAAAACA	-0.159
ATGTCGAA	-0.0741
CATCCGGA	0.406
ACCCACCA	-0.126
TACACTCA	-0.0369
GGGGCGGA	0.294
ATTCCCGA	0.451
ACGTTTAC	0.00196
AATTAAAA	0.0995

Sequence	PBM E-score
CATACACA	-0.234
TGTTTTAA	-0.0422
CGAATGGA	-0.00795
CGATATGC	0.0903
GGTTCTAA	0.154
CATTACAC	-0.128
CCTCTTTC	0.0261
CAGTTTGG	-0.138
GCGTGAGC	-0.0394
GTCCACCA	-0.177
AGTAGTCC	0.13
ACCACGAT	-0.31
GCTCGTGA	-0.108
AATTCTTC	0.00684
CTCTAGTA	-0.18
CTCTAACA	-0.114
CATTCTGG	-0.122
CTGAAGGA	-0.153
AAGTGGCG	0.0121
CTGGCCGC	-0.226
CTCAGTAA	-0.214
GAATAAGA	0.117
CTTGGTGA	-0.0851
CCTGAGTA	-0.224
AATTAAGC	0.0738

Sequence	PBM E-score
AAATGCTG	-0.227
AGCGATGG	-0.0938
CATTTCGA	-0.101
GAGCGGGA	0.18
TCATTGAA	-0.163
CTGGAATC	0.0452
GGGCACAC	-0.0902
CACAGGCC	-0.0324
AACTATGC	0.0882
CTTTAACC	-0.00268
AAGCCAAA	-0.0671
ACGTTGAG	-0.161
CCGGAAGG	0.392
TAGAATAA	-0.0837
CATAGCCC	-0.134
ATAAACTG	0.0204
AAATTATA	0.104
CATCTGGC	-0.0988
CATCGTGC	-0.257
AACCGTCG	0.214
CCTATGCG	0.00696
ATCCCGCA	0.0648
